Results taken from article PMC7819943, “Rice protein-binding microarrays: a tool to detect cis-acting elements near promoter regions in rice”.
The list shows a part of the results.

Biological target: T1, OsWOX13 (Oryza sativa, UniProt Q5QMM3 1-267)
T1 sequence: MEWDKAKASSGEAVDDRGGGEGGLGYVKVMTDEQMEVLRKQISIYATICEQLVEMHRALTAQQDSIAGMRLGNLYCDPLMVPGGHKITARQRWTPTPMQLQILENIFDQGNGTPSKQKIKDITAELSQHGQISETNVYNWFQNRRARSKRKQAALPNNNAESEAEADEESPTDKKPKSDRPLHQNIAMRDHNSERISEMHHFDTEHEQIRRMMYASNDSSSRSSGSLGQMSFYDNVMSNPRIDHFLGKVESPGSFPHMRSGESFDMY
Assay: protein-binding microarray (RPBM); PBS, 2% BSA, 51.3 ng/ul salmon testes DNA, 50 uM zinc acetate, 200 nM TF, 25 C, 1 h; high values mean tight binding
Settings: protein: recombinant; tags: N-terminal polyhistidine and DsRed monomer fusion (pET32a); label: CyDye5-dUTP incorporated in the synthesized complementary strand; 3' TTTTT single-stranded linker to array surface; dsDNA, one strand shown
Outline: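 Transcription factors were made in E. coli BL21-CodonPlus as N-terminal fusions to a polyhistidine tag and DsRed, then purified on Ni–NTA. After primer extension with Cy5-dUTP and blocking with 2% BSA, a custom Agilent array was exposed for 1 h at 25 °C to 200 nM protein in PBS, 2% BSA, salmon testes DNA and 50 µM zinc acetate. Washed arrays were scanned on an Axon 4000B, and the binding signal is per-feature fluorescence intensity in arbitrary units.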

| Sequence | binding signal |
| --- | --- |
| TCAGATCGATGGTTGATTGCACTGCACTGCAGATGAAAGACGGAGTCACCTAGTGCAG | 6190 fluorescence intensity (a.u.) |
| TAATTTGTAATTATAGAATCTAAATTAAACTGACTACCAACGGAGTCACCTAGTGCAG | 11700 fluorescence intensity (a.u.) |
| CCCATCTGTCAGTGTGTCAGACTGTCAGTGTGCCGCTCACCGGAGTCACCTAGTGCAG | 3520 fluorescence intensity (a.u.) |
| TTAGATTAGATAAGATTGGTAGGATGTGATTAGTTGGGGACGGAGTCACCTAGTGCAG | 30200 fluorescence intensity (a.u.) |
| TTTTATTTAATTCCTGTTGATTTAATTCATTTAGTCATTTCGGAGTCACCTAGTGCAG | 8970 fluorescence intensity (a.u.) |
| GAATCCATTAACAGGAACAGAGTTACTGCATCTTCTTTGGCGGAGTCACCTAGTGCAG | 4430 fluorescence intensity (a.u.) |
| CGCTAATTAGCGATCTTGTCTTAATAACAACTGGATTAATCGGAGTCACCTAGTGCAG | 38900 fluorescence intensity (a.u.) |
| CACTTACCATGATAATTTGAACAGTTCACACGCGCCGAGACGGAGTCACCTAGTGCAG | 5850 fluorescence intensity (a.u.) |
| ATTTAGATCTAATGAAACTAATTTGCTATTTTAGATGTTGCGGAGTCACCTAGTGCAG | 5750 fluorescence intensity (a.u.) |
| CTATAAATTTAACATATTGTGCTACGCTCAATATATCGTTCGGAGTCACCTAGTGCAG | 12300 fluorescence intensity (a.u.) |
| TCCTCGGCATAATTTCCCTCAAGGATTGGTACCAAGTCATCGGAGTCACCTAGTGCAG | 4010 fluorescence intensity (a.u.) |
| ACACATTTTGATTAAATGGAAATATCAGTAATAATGGTTACGGAGTCACCTAGTGCAG | 9200 fluorescence intensity (a.u.) |
| AACTTTGTTTTACTGCTAATTATAATCACCAGTAGAGAGACGGAGTCACCTAGTGCAG | 9950 fluorescence intensity (a.u.) |
| GAATAACTGCCAATCAAAGCTTTATCCTAATGAACTATTGCGGAGTCACCTAGTGCAG | 37500 fluorescence intensity (a.u.) |
| ATACATTGTGGATGACTGGTAACTATATTGAGGAAATAGTCGGAGTCACCTAGTGCAG | 3530 fluorescence intensity (a.u.) |
| CTCTAATTTGGCTGACAATACCTAGAACGACATACTTCGTCGGAGTCACCTAGTGCAG | 16900 fluorescence intensity (a.u.) |
| CCCCTTAATTCCATCTCATAGACAGCCAAAAGGGTCAAGACGGAGTCACCTAGTGCAG | 9070 fluorescence intensity (a.u.) |
| TTTGATGAATTTCATGCATTCCATCATGAGCAACTTCACCCGGAGTCACCTAGTGCAG | 7650 fluorescence intensity (a.u.) |
| CTTATTAGCACATGATTAATTAATTATTAACTATTATAAACGGAGTCACCTAGTGCAG | 19500 fluorescence intensity (a.u.) |
| ATTAAAACTCAATTAATTACATGTTATTACCATCTCGTTTCGGAGTCACCTAGTGCAG | 20800 fluorescence intensity (a.u.) |
| CTAATGACGAATTAATTAGAATTAATAGATTTATCTTGCACGGAGTCACCTAGTGCAG | 53300 fluorescence intensity (a.u.) |
| CCATGATTAGTCCTAAGTGCTACGGTAATCCACATGTGCTCGGAGTCACCTAGTGCAG | 45400 fluorescence intensity (a.u.) |
| GGAAGATAGATAGTGATTAGGTTTATAATACTTGGAGCAACGGAGTCACCTAGTGCAG | 31200 fluorescence intensity (a.u.) |
